Reference: PubChem BioAssay (NCATS)
Where “and” joins values, the source holds several entries; their conditions need not be identical. Identical values can stand only once. Inconclusive results, whose numbers are uncertain, are shown with a selection of clear calls. Potencies beside an inconclusive call are fits to weak or partial responses and may not hold up. Calls of active or inactive are those of the source. Calls follow the shape of the dose curve; as a rule, active = well fitted curve in the direction sought with a large enough effect; inconclusive = small, poorly fitted or top-dose-only effect, or another doubt; inactive = no such curve, though single readings can be large; an effect the other way counts as inactive or inconclusive.

Experiments:
[1] = Viability qHTS for spleen associated tyrosine kinase inhibitor (SYKi) naive MV4-11 cells (AID 1963823); conditions: MV4-11 AML viability, CellTiter-Glo luminescence, 72 h; viability (% of control): at 45 µM (top of the series); also: nearly all actives have a fitted effect of over 40% in size
Summary of the method: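 CellTiter-Glo luminescence, 10 min room-temperature incubation, gave viability. Cells: naive MV4-11 (500/well), treated 72 hr at 37 C, 5% CO2.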

[2] = Viability qHTS for spleen associated tyrosine kinase inhibitor (SYKi) drug resistant MV4-11 cells (AID 1963824); also: nearly all actives have a fitted effect of over 35% in size
Summary of the method: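 SYK inhibitor-resistant MV4-11 AML cells, 500 per well, added to predispensed compounds and incubated 72 hr at 37 C, 5% CO2. Viability measured by CellTiter-Glo luminescence after 10 min at room temperature.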

[3] = Cellular viability qHTS for adrenocortical cancer (ACC) cell line SW-13 (AID 1963989); conditions: SW-13 ACC cells viability, CellTiter-Glo, 48 h; activity (max response): stronger effect = lower value; also: nearly all actives have a fitted effect of over 65% in size;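 as to activity (max response): cells grown in serum-free medium with ITS supplement; % is scaled to controls: 0 for no effect and ±100 for the full control effect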
Summary of the method: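 48 h treatment, SW-13 in ITS/DMEM serum-free; doses up to 46 uM; readout CellTiter-Glo luminescence; curve fit four-parameter logistic.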

[4] = Cellular viability qHTS for adrenocortical cancer (ACC) cell line NCI-H295R (AID 1963990); conditions: CellTiter-Glo ATP luminescence, 48 h; activity change, negative = viability loss: at 46.1 µM (top of the series); also: nearly all actives have a fitted effect of over 60% in size;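 as to activity change, negative = viability loss: 0% = DMSO only wells and -100% = full killing with cytotoxic reference compound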
Summary of the method: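 Compound titrations (up to 46 uM final) are applied to NCI-H295R cultures for 48 h at 37C. Viable cell number is estimated by CellTiter-Glo signal, normalised to DMSO and doxorubicin controls.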
Potency is read from the fitted curve at half-maximal effect; tags tell the direction and shape of the fitted curve.

CC/C=C(\C(=O)N[C@@H]1C(=O)N2C(C(=O)OCOC(=O)C(C)(C)C)=C(COC(N)=O)CS[C@H]12)c1csc(N)n1
Potency [1]: inactive and inconclusive: 11.9 µM [cytotoxic, partial curve] | Potency [2]: inactive and inconclusive: 9.44 µM [cytotoxic, partial curve, poor fit] | Potency [3]: inconclusive: 18.4 µM [cytotoxic, single point] | activity (max response) [3]: inactive: 13.8%

COc1cc2c(cc1O)CC[C@@H]1[C@@H]2CC[C@]2(C)[C@@H](O)CC[C@@H]12
Potency [1]: active: 0.833 µM | Potency [2]: active: 0.934 µM | Potency [3]: inconclusive: 0.316 µM [cytotoxic, full curve, poor fit] | Potency [4]: inconclusive: 0.501 µM [cytotoxic, partial curve, poor fit]

CNCCCCOc1ccccc1Cc1ccccc1
Potency [1]: inconclusive: 16.8 µM [cytotoxic, partial curve] | Potency [2]: inconclusive: 26.6 µM [cytotoxic, single point] | Potency [3]: inconclusive: 16.4 µM [cytotoxic, single point] | Potency [4]: inconclusive: 23.1 µM [cytotoxic, single point]

Oc1ccccc1C=NCc1ccccc1
Potency [1]: inconclusive: 29.9 µM [cytotoxic, single point] | Potency [2]: inactive | activity (max response) [3]: inactive: 6.8% | Potency [4]: inactive

O=C(O)CCC(=O)O
Potency [1]: inactive | Potency [2]: inactive | Potency [3]: inconclusive: 29.1 µM [cytotoxic, single point] | Potency [4]: inconclusive: 23.1 µM [cytotoxic, partial curve, poor fit]

CCCCCCOC(=O)NC(=N)c1ccc(NCc2nc3cc(C(=O)N(CCC(=O)OCC)c4ccccn4)ccc3n2C)cc1
Potency [1]: inconclusive: 15 µM [cytotoxic, partial curve, poor fit] and active: 2.35 µM | Potency [2]: inconclusive: 15 µM [cytotoxic, partial curve] and active: 1.48 µM | Potency [3]: inconclusive: 18.4 µM [cytotoxic, single point] and inconclusive: 28.2 µM [cytotoxic, partial curve, poor fit] | Potency [4]: inconclusive: 29.1 µM [cytotoxic, single point] and inconclusive: 35.5 µM [cytotoxic, single point]

CO/N=C(\C(=O)N[C@@H]1C(=O)N2C(C(=O)O)=C(CSc3nc(=O)c(O)nn3C)CS[C@H]12)c1csc(N)n1
Potency [1]: inconclusive: 2.37 µM [rising, partial curve, poor fit] | Potency [2]: inconclusive: 0.0531 µM [rising, full curve, poor fit] | activity (max response) [3]: inactive: 16.1% | Potency [4]: inactive

CC(C)S(=O)(=O)c1ccc2nccc(Nc3ccc4scnc4c3)c2c1
Potency [1]: active: 8.2 µM | Potency [2]: active: 16.4 µM | Potency [3]: inconclusive: 35.5 µM [cytotoxic, single point] | Potency [4]: inconclusive: 35.5 µM [cytotoxic, single point]

Nc1ncnc2c1ncn2[C@@H]1O[C@H](CO)[C@@H](O)[C@H]1O
Potency [1]: inconclusive: 0.9 nM and inconclusive: 7.42 µM [cytotoxic, partial curve, poor fit] | Potency [2]: inactive | Potency [3]: inconclusive: 29.1 µM [cytotoxic, single point] | Potency [4]: inconclusive: 4.11 µM [cytotoxic, single point]

CN(C)CCOC(c1ccccc1)c1ccc(Br)cc1 (centres undefined)
Potency [1]: inconclusive: 15 µM [cytotoxic, partial curve] | Potency [2]: inconclusive: 26.6 µM [cytotoxic, single point] | Potency [3]: inconclusive: 23.1 µM [cytotoxic, partial curve, poor fit] | Potency [4]: active: 13 µM

CC1=C(CC(=O)O)c2cc(F)ccc2/C1=C\c1ccc(S(C)(=O)=O)cc1
Potency [1]: inconclusive: 13.3 µM [cytotoxic, partial curve] | Potency [2]: inconclusive: 26.6 µM [cytotoxic, single point] | Potency [3]: inconclusive: 18.4 µM [cytotoxic, single point] | Potency [4]: inconclusive: 32.6 µM [cytotoxic, single point]

CCN(CC)CCOc1ccc(/C(=C(\Cl)c2ccccc2)c2ccccc2)cc1
Potency [1]: active: 9.44 µM and active: 8.2 µM | Potency [2]: active: 10.6 µM and active: 10.3 µM | Potency [3]: inconclusive: 18.4 µM [cytotoxic, single point] and inconclusive: 35.5 µM [cytotoxic, single point] | Potency [4]: active: 7.31 µM and inconclusive: 35.5 µM [cytotoxic, single point]

CNCCCC1c2ccccc2C=Cc2ccccc21
Potency [1]: inconclusive: 18.8 µM [cytotoxic, single point] | Potency [2]: inconclusive: 18.8 µM [cytotoxic, single point] | Potency [3]: inconclusive: 18.4 µM [cytotoxic, single point] | Potency [4]: inconclusive: 29.1 µM [cytotoxic, single point]

O=C(C1CCCCC1)N1CC(=O)N2CCCc3ccccc3C2C1 (centres undefined)
Potency [1]: inconclusive: 29.9 µM [cytotoxic, single point] | Potency [2]: inconclusive: 0.335 µM [cytotoxic, partial curve, poor fit] | Potency [3]: inconclusive: 18.4 µM [cytotoxic, single point] | Potency [4]: active: 29.1 µM

CCCCC(CC)CN=C(N)NC(N)=NCCCCCCN=C(N)NC(N)=NCC(CC)CCCC (centres undefined)
Potency [1]: inconclusive: 2.99 µM [cytotoxic, full curve, poor fit] | Potency [2]: active: 2.66 µM | Potency [3]: inconclusive: 0.92 µM [cytotoxic, full curve, poor fit] | Potency [4]: inconclusive: 1.84 µM [cytotoxic, partial curve, poor fit]

CCCSS/C(CCO)=C(\C)N(C=O)Cc1cnc(C)nc1N
Potency [1]: inconclusive: 26.6 µM [cytotoxic, single point] | Potency [2]: inconclusive: 26.6 µM [cytotoxic, single point] | Potency [3]: inconclusive: 23.1 µM [cytotoxic, single point] | Potency [4]: active: 9.2 µM
